# Source: the supplement of paper PMC10126150
# Values marked as one replicate rest on one cluster of the flow cell; about a third of the high ones do not repeat.
# Test system: ATP
# Assay: switch fluorescence ratio, 500 uM ATP over buffer (Cy3 cluster intensity, sum of 5 cycles each) (fold (ratio)); higher = stronger signal-on switching upon ATP binding; sequences stand for … in TCGTCGGCAGCGTCAGATGTGTATAAGAGACAGTTTTTTTTTTTTTTTTTTTTTTTTT…TC
# Details: aptamer strand: ATP DNA aptamer (quencher-CACCTGGGGGAGTATTGCGGAGGAAGG + anchor), 100 nM annealed; ATP concentration: 500 uM; one replicate
# Procedure, shortened: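 After annealing to 100 nM quencher-labelled ATP aptamer, Cy3-labelled switching-strand clusters on a modified Illumina MiSeq flow-cell were imaged in selection buffer. A second image followed after 15 min with 500 uM ATP at 22 °C, and five such buffer/ATP cycles were done, each separated by NaOH stripping and re-annealing. The fluorescence ratio, averaged per switch-domain sequence, is summed target-cycle over summed buffer-cycle Cy3 intensity per cluster, with clusters outside 100-1000 RFU excluded.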
# 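Note: ATP exposure 15 min at 22 °C before imaging.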
sequence,measurement,value
CTCCATTTTG,switch fluorescence ratio,1.04
AATCCGTTAG,switch fluorescence ratio,1.05
TTGTATTTTC,switch fluorescence ratio,1.04
TCAGAAAA,switch fluorescence ratio,0.988
GACCACTA,switch fluorescence ratio,1.21
TCTCCTAGTG,switch fluorescence ratio,1.14
AATTAGCAGT,switch fluorescence ratio,1.04
ACATGTCATC,switch fluorescence ratio,1.01
ATAGTTATCG,switch fluorescence ratio,1.01
ATAGAGCAAG,switch fluorescence ratio,1.1
ATGGCGCGGC,switch fluorescence ratio,1.07
TATCCTTTTA,switch fluorescence ratio,0.972
GGGCTTACAA,switch fluorescence ratio,0.985
GCCCTGACAC,switch fluorescence ratio,1.06
CACTCTAGTC,switch fluorescence ratio,1.02
GGACCTACCG,switch fluorescence ratio,1.1
CGTTTGAGCG,switch fluorescence ratio,0.943
TTGCGGGTA,switch fluorescence ratio,1.01
GCCCAGGGTA,switch fluorescence ratio,1.42
TGACTGGGGG,switch fluorescence ratio,0.966
AAATCCAGAC,switch fluorescence ratio,1.05
CGGCCTCATC,switch fluorescence ratio,1.05
GCCAGCTACT,switch fluorescence ratio,1.08
ACATTCTT,switch fluorescence ratio,1.01
GATCATAATT,switch fluorescence ratio,1
GGATTGGATA,switch fluorescence ratio,0.985
CATATCCAAG,switch fluorescence ratio,0.988
TGCCTCTAAC,switch fluorescence ratio,0.973
CAGATTGGTA,switch fluorescence ratio,0.966
ATTTTTCCT,switch fluorescence ratio,1.05
TTCCGTTCTA,switch fluorescence ratio,1.04
TTGGATTGCC,switch fluorescence ratio,1.08
TAGCGCGCGA,switch fluorescence ratio,0.956
ATGTCAGGCA,switch fluorescence ratio,1
TGAGAAGCGC,switch fluorescence ratio,1.41
ATGTGGAGCT,switch fluorescence ratio,1.04
TCTTTTACTC,switch fluorescence ratio,1.02
CGGTTACGCC,switch fluorescence ratio,0.962
ATGGCGGTTC,switch fluorescence ratio,1.3
GCGTGATGGG,switch fluorescence ratio,1.03
AGTCGACCTG,switch fluorescence ratio,0.991
CGCCCCATGG,switch fluorescence ratio,1.73
GGGAATGATG,switch fluorescence ratio,0.945
GGATTGTGGA,switch fluorescence ratio,0.98
ATCTGGTGCC,switch fluorescence ratio,1.03
CCAATTGAGC,switch fluorescence ratio,0.947
TAGGCCTTCG,switch fluorescence ratio,1.19
CAGTTCGGCG,switch fluorescence ratio,0.961
TGATACAAC,switch fluorescence ratio,1.04
CTCTCGAAGG,switch fluorescence ratio,0.977
CATTAGGTGG,switch fluorescence ratio,0.988
CCATATTAGG,switch fluorescence ratio,1.01
GTCCCAACTT,switch fluorescence ratio,1.06
ATACACCGCC,switch fluorescence ratio,1.28
AACAGCAGCA,switch fluorescence ratio,1.02
GTGATCTGGA,switch fluorescence ratio,0.962
CGCGGCTTTG,switch fluorescence ratio,1.07
ACGCGCATGG,switch fluorescence ratio,0.978
GCAAACCACA,switch fluorescence ratio,1.08
GAGTCAGTTA,switch fluorescence ratio,1.05
ATTGCCTTCC,switch fluorescence ratio,1.07
GGTATACAGC,switch fluorescence ratio,1.02
GCTAGGCTCG,switch fluorescence ratio,1.01
TAAATCCTTA,switch fluorescence ratio,1.06
GGCTTATTTA,switch fluorescence ratio,0.996
AAGAAATGG,switch fluorescence ratio,0.948
TTTTGTGGAG,switch fluorescence ratio,1.04
AGAACGTATC,switch fluorescence ratio,1.09
AACTGACACT,switch fluorescence ratio,1.14
ATAGACTAGG,switch fluorescence ratio,1.02
CGAATTCTAA,switch fluorescence ratio,0.987
GGCGGCCAGC,switch fluorescence ratio,1.02
CAGATTTTCA,switch fluorescence ratio,0.969
TCAAGAAATT,switch fluorescence ratio,1.06
AACTTATCTT,switch fluorescence ratio,0.933
GGCGGCTGCC,switch fluorescence ratio,1.03
TAAGAGAAAG,switch fluorescence ratio,1.01
ATATATTAG,switch fluorescence ratio,1.01
CGTAGAAGAG,switch fluorescence ratio,1.05
TCAATAGAAG,switch fluorescence ratio,0.97
AAGTTACCCA,switch fluorescence ratio,1.13
TAGTAATCTG,switch fluorescence ratio,0.935
AATGCCCAGG,switch fluorescence ratio,3.68
CGGACGCGGG,switch fluorescence ratio,1.07
CCAAAAATCA,switch fluorescence ratio,1.01
GAGACCCCTG,switch fluorescence ratio,1
ACGGAGGGAC,switch fluorescence ratio,1.05
AGAGAACATG,switch fluorescence ratio,0.975
ACATGATTA,switch fluorescence ratio,0.985
CATCCTGAAA,switch fluorescence ratio,1.05
CTATCGGTAC,switch fluorescence ratio,1.84
ATAGGAGGC,switch fluorescence ratio,0.944
GCTTGGGATG,switch fluorescence ratio,1.02
TTATCTTATA,switch fluorescence ratio,1.01
GTTCTGATCG,switch fluorescence ratio,1.02
TTCACTAAGT,switch fluorescence ratio,1.02
GTAGGCGTTA,switch fluorescence ratio,0.981
GAGCGAGGTC,switch fluorescence ratio,0.989
TGAAGGAATG,switch fluorescence ratio,1.04
ATGGTACATC,switch fluorescence ratio,1.02
CAAACAGCGT,switch fluorescence ratio,0.99
TCCCCTTCCG,switch fluorescence ratio,2.06
TCTCAACAT,switch fluorescence ratio,1.01
ACTTTGGTCA,switch fluorescence ratio,0.979
ATTTGGGCCG,switch fluorescence ratio,1.02
GGGCGGGCCT,switch fluorescence ratio,0.961
TGCATTACCT,switch fluorescence ratio,1.23
TGAATTGCCA,switch fluorescence ratio,0.99
GGATGTCTTA,switch fluorescence ratio,0.977
ATAGCTCATG,switch fluorescence ratio,0.973
GGTGCATCGA,switch fluorescence ratio,1
TCCCTCGGAT,switch fluorescence ratio,1
TGGCTAGTCG,switch fluorescence ratio,0.971
GGTTGGACTT,switch fluorescence ratio,1.02
CTTGAAGAGT,switch fluorescence ratio,0.954
AGGATTCTCC,switch fluorescence ratio,0.986
GTATGCAGAG,switch fluorescence ratio,0.931
CAATTTTTTC,switch fluorescence ratio,1.04
CAGGACTT,switch fluorescence ratio,1.01
GAAGTCACTG,switch fluorescence ratio,0.971
TAACAGTACG,switch fluorescence ratio,1.24
GGATGACGAA,switch fluorescence ratio,0.996
ATATTAGTAC,switch fluorescence ratio,1.02
GACGTCGTGC,switch fluorescence ratio,1.02
CTCGAAGGGG,switch fluorescence ratio,0.991
AGACAGTGGG,switch fluorescence ratio,1.05
TCATCTCCAA,switch fluorescence ratio,1.23
CGCCGAGCTG,switch fluorescence ratio,1.04
TATACATTTT,switch fluorescence ratio,1.04
GTACAACGTA,switch fluorescence ratio,0.985
TTGTCCAGCT,switch fluorescence ratio,0.977
TGATACGAGG,switch fluorescence ratio,1.03
TTCACTATCC,switch fluorescence ratio,1.04
ACCCGCATGT,switch fluorescence ratio,3.44
CGGATTAGAC,switch fluorescence ratio,1.04
TACCGGGGAC,switch fluorescence ratio,1.1
GCAATCCGCA,switch fluorescence ratio,1.58
TTCGGGAGAT,switch fluorescence ratio,0.997
TTGGATATAC,switch fluorescence ratio,1.07
TGTCGATCAG,switch fluorescence ratio,1.01
GAGGCCTAGC,switch fluorescence ratio,0.963
CGGATGTCGC,switch fluorescence ratio,0.941
TCACGATGGC,switch fluorescence ratio,0.996
CTTTGGTCGG,switch fluorescence ratio,0.956
AGGTATGGTA,switch fluorescence ratio,0.984
TGTTTGATTG,switch fluorescence ratio,0.979
CCAATAGATG,switch fluorescence ratio,0.997
CTGCCTGTGT,switch fluorescence ratio,1.06
AGACGTTTCC,switch fluorescence ratio,1.16
CATGCGGTCG,switch fluorescence ratio,0.991
GTCTGACCTT,switch fluorescence ratio,1.13
CGTTTGTAGA,switch fluorescence ratio,1.03
ATCAAACTGT,switch fluorescence ratio,1.06
CTCAATTGGT,switch fluorescence ratio,0.994
AAAGAAGTGC,switch fluorescence ratio,1.11
AGCATGGGCC,switch fluorescence ratio,1.07
CGGTTGTACT,switch fluorescence ratio,1.08
TATTAGTTAG,switch fluorescence ratio,0.995
TCAGATGTAG,switch fluorescence ratio,1.01
CGTTCGTGCG,switch fluorescence ratio,0.996
TAGTTTTGC,switch fluorescence ratio,1.02
CCTGTTGATA,switch fluorescence ratio,1.01
GAATACTTGC,switch fluorescence ratio,1.05
AAATATCACC,switch fluorescence ratio,1.09
ATTCATGTGA,switch fluorescence ratio,0.981
ATACCAGGCT,switch fluorescence ratio,1.05
ACTGCATACC,switch fluorescence ratio,1.59
TCATAGGGAA,switch fluorescence ratio,1.01
TGCGTACTAG,switch fluorescence ratio,1
ACCTGCTAAT,switch fluorescence ratio,1.06
GAACATTAAT,switch fluorescence ratio,0.967
TCGCGAACCG,switch fluorescence ratio,1.01
GCATAAAGAC,switch fluorescence ratio,1.11
CGGGTACGAC,switch fluorescence ratio,1.05
ATATCTACGC,switch fluorescence ratio,1.13
TTGACGTCTA,switch fluorescence ratio,1.25
AGGGATCATA,switch fluorescence ratio,0.988
TCTCTTCGGG,switch fluorescence ratio,1.03
GTTCACTGTG,switch fluorescence ratio,1.02
ACTTGCGTT,switch fluorescence ratio,0.963
GTCCTTTGGC,switch fluorescence ratio,1.04
CGAAGCCTTA,switch fluorescence ratio,1.09
TTTCGTATT,switch fluorescence ratio,1.02
GCGGGTATAG,switch fluorescence ratio,1.05
CCAGGTTAGG,switch fluorescence ratio,1.06
CCTAAATGAA,switch fluorescence ratio,1.02
GACTTCATTT,switch fluorescence ratio,0.954
CCCGATGTTG,switch fluorescence ratio,1.05
CCAAGCTTGG,switch fluorescence ratio,0.972
TGCGGGGATG,switch fluorescence ratio,1.08
GATTGTGCAG,switch fluorescence ratio,0.976
GCGGCTACAT,switch fluorescence ratio,0.986
CTGCCCGGGT,switch fluorescence ratio,0.964
TATTACGAAC,switch fluorescence ratio,1.49
TTTTATGATC,switch fluorescence ratio,0.987
GCGTTGAATT,switch fluorescence ratio,1.01
CATTGTGCTC,switch fluorescence ratio,0.964
TTCTAGAGTT,switch fluorescence ratio,1.02
CGTGGATTGG,switch fluorescence ratio,0.99
ATGGAAATGC,switch fluorescence ratio,1.08
AGGTTCTGG,switch fluorescence ratio,0.969
